Numbering of substitutions follows the chain as printed. Names may count otherwise. ± gives the standard deviation of the averaged measurements. Laboratory Escherichia coli strains with one amino-acid change in an essential protein, pooled on minimal glucose agar with carbenicillin or gentamicin at twice the control MIC (plus kanamycin and chloramphenicol for the plasmids), 48 h. Fold change of barcode share against drug-free plates; higher = less susceptible. Active = above 20 in both replicates (the paper's putatively resistant). '<' = one read or none on drug, '>' = one read or none on a drug-free plate. Shares are relative, so most strains fall below 1 when a few take over. Listed are strains with at least 15 reads on both drug-free plates, and hits; most hits rest on fewer reference reads. Replicate rank correlation about 0.5. Edits are read from barcodes.
B1: argH V345W (protein)
chain: MALWGGRFTQAADQRFKQFNDSLRFDYRLAEQDIVGSVAWSKALVTVGVLTAEEQAQLEEALNVLLEDVRARPQQILESDAEDIHSWVEGKLIDKVGQLGKKLHTGRSRNDQVATDLKLWCKDTVSELLTANRQLQSALVETAQNNQDAVMPGYTHLQRAQPVTFAHWCLAYVEMLARDESRLQDALKRLDVSPLGCGALAGTAYEIDREQLAGWLGFASATRNSLDSVSDRDHVLELLSAAAIGMVHLSRFAEDLIFFNTGEAGFVELSDRVTSGSSLMPQKKNPDALELIRGKCGRVQGALTGMMMTLKGLPLAYNKDMQEDKEGLFDALDTWLDCLHMAALWLDGIQVKRPRCQEAAQQGYANATELADYLVAKGVPFREAHHIVGEAVVEAIRQGKPLEDLPLSELQKFSQVIDEDVYPILSLQSCLDKRAAKGGVSPQQVAQAIAFAQARLG
B2: argH V345Q (protein)
chain: B1 chain with W345Q
B3: argH V345D (protein)
chain: B1 chain with W345D
B4: argH V345P (protein)
chain: B1 chain with W345P
B5: ilvA M70Q (protein)
chain: MADSQPLSGAPEGAEYLRAVLRAPVYEAAQVTPLQKMEKLSSRLDNVILVKREDRQPVHSFKLRGAYAMQAGLTEEQKAHGVITASAGNHAQGVAFSSARLGVKALIVMPTATADIKVDAVRGFGGEVLLHGANFDEAKAKAIELSQQQGFTWVPPFDHPMVIAGQGTLALELLQQDAHLDRVFVPVGGGGLAAGVAVLIKQLMPQIKVIAVEAEDSACLKAALDAGHPVDLPRVGLFAEGVAVKRIGDETFRLCQEYLDDIITVDSDAICAAMKDLFEDVRAVAEPSGALALAGMKKYIALHNIRGERLAHILSGANVNFHGLRYVSERCELGEQREALLAVTIPEEKGSFLKFCQLLGGRSVTEFNYRFADAKNACIFVGVRLSRGLEERKEILQMLNDGGYSVVDLSDDEMAKLHVRYMVGGRPSHPLQERLYSFEFPESPGALLRFLNTLGTYWNISLFHYRSHGTDYGRVLAAFELGDHEPDFETRLNELGYDCHDETNNPAFRFFLAG
B6: ilvA V154D (protein)
chain: B5 chain with Q70M, V154D
B7: ilvA I83A (protein)
chain: B5 chain with Q70M, I83A
B8: ilvA I83Q (protein)
chain: B5 chain with Q70M, I83Q
B9: ilvA I83P (protein)
chain: B5 chain with Q70M, I83P
B10: ilvD I36Q (protein)
chain: MPKYRSATTTHGRNMAGARALWRATGMTDADFGKPQIAVVNSFTQFVPGHVHLRDLGKLVAEQIEAAGGVAKEFNTIAVDDGIAMGHGGMLYSLPSRELIADSVEYMVNAHCADAMVCISNCDKITPGMLMASLRLNIPVIFVSGGPMEAGKTKLSDQIIKLDLVDAMIQGADPKVSDSQSDQVERSACPTCGSCSGMFTANSMNCLTEALGLSQPGNGSLLATHADRKQLFLNAGKRIVELTKRYYEQNDESALPRNIASKAAFENAMTLDIAMGGSTNTVLHLLAAAQEAEIDFTMSDIDKLSRKVPQLCKVAPSTQKYHMEDVHRAGGVIGILGELDRAGLLNRDVKNVLGLTLPQTLEQYDVMLTQDDAVKNMFRAGPAGIRTTQAFSQDCRWDTLDDDRANGCIRSLEHAYSKDGGLAVLYGNFAENGCIVKTAGVDDSILKFTGPAKVYESQDDAVEAILGGKVVAGDVVVIRYEGPKGGPGMQEMLYPTSFLKSMGLGKACALITDGRFSGGTSGLSIGHVSPEAASGGSIGLIEDGDLIAIDIPNRGIQLQVSDAELAARREAQDARGDKAWTPKNRERQVSFALRAYASLATSADKGAVRDKSKLGG

Target: Escherichia coli (laboratory strain)
Test: barcode share on antibiotic plates over drug-free plates; higher = less susceptible
Description: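 A pool of E. coli strains, each edited to carry one amino-acid change in an essential protein, was grown for 48 h on minimal glucose agar with or without antibiotic; strain barcodes were sequenced; mean of two replicates.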

[1] = antibiotic: carbenicillin, 2× MIC (3.1 µg/mL)
[2] = antibiotic: gentamicin, 2× MIC (MIC 0.45 µg/mL)

Row | Protein | fold change of barcode share [1] | fold change of barcode share [2]
1 | B1 | 0.592 ± 0.24 | 0.0506 ± 0.062
2 | B2 | 0.498 ± 0.12 | 0.0141 ± 0.0099
3 | B3 | 0.526 ± 0.38 | 0.00805 ± 0.0085
4 | B4 | 0.41 ± 0.06 | 0.0111 ± 0.01
5 | B5 | 0.472 ± 0.14 | 0.0101 ± 0.0056
6 | B6 | 29.3 [active] | –
7 | B7 | 0.782 ± 0.04 | 0.205 ± 0.24
8 | B8 | 21.4 [active] | –
9 | B9 | 28.2 [active] | –
10 | B10 | 2.1 ± 0.83 | 0.0402 ± 0.005

From the supplement of paper PMC11876631
